From PubChem BioAssay AID624417 (National Center for Advancing Translational Sciences (NCATS), 2012)
Values joined by “and” are separate entries in the source; they are usually repeats but may differ in a detail not shown here. Identical values can stand only once. The whole screen tested about 410,000 compounds, of which about 6,400 (1.6%) were called active. The shares of active, inactive and inconclusive entries below differ from those in the screen. Calls follow the shape of the dose curve; as a rule, active = well fitted inhibition curve with a large enough effect; inconclusive = small, poorly fitted or top-dose-only effect; inactive = no such curve, though single readings can be large or run the other way. Potencies beside an inconclusive call are fits to weak or partial responses and may not hold up.

Each compound was assayed against Glucagon-like peptide 1 receptor (Homo sapiens) (UniProt P43220) (assay: qHTS of GLP-1 Receptor Inverse Agonists (Inhibition Mode)). Conditions: HEK293 GLP-1R CRE-luciferase, luminescence, 24 h, GLP-1R form is constitutively active; series mostly up to 38.3 µM.
Summary of the method: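 Luminescence readout: a drop in cAMP-driven luciferase signal flags inverse agonism at a constitutively active GLP-1R stably expressed in HEK293. Compound exposure lasted 24 hr at 37 deg C, 5% CO2.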
Also: nearly all actives have a fitted effect of over 55% in size.
Potency is read from the fitted curve at half-maximal effect; tags tell the direction and shape of the fitted curve.

Sequence of UniProt P43220 (P43220 whole entry, looked up): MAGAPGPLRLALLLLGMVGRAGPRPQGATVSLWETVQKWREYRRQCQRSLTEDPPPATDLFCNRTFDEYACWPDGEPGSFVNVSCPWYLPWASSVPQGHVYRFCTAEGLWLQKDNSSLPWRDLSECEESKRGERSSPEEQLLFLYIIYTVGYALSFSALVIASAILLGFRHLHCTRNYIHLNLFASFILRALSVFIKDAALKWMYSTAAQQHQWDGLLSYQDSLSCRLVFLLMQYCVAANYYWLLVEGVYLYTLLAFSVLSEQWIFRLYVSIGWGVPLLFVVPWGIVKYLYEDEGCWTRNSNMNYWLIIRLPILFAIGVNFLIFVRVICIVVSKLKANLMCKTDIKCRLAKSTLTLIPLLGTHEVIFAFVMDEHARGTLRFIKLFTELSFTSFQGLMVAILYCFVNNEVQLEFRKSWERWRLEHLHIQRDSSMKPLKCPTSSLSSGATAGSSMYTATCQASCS

Potency, inconclusive:
O=C1C(Cc2ccccc2)Nc2ncnc(N3CCCCC3)c2N1Cc1ccc(Br)cc1 (stereo not drawn) 10 µM [inhibitor, partial curve, poor fit] and 28.2 µM [inhibitor, single point]
C=CCc1ccc(OCCCNCc2ccccc2)c(OC)c1 12.6 µM [inhibitor, single point]
CCOC(=O)c1ccc(N=c2sc(C(=O)OC)cc(=O)n2Cc2ccc3c(c2)OCO3)cc1 6.31 µM [inhibitor, partial curve, poor fit]
O=C(Cc1cc(C(=O)O)c2ccccc2n1)Nc1ccccc1 11.2 µM [inhibitor, single point]
Cc1ccc(CNC(=O)CCNS(=O)(=O)c2ccc(Br)s2)cc1 11.2 µM [inhibitor, partial curve]
O=C(Nc1nc2c(F)cc(F)cc2s1)c1ccccn1 1.26 µM [inhibitor, full curve, poor fit]
CCOC(=O)c1ccc(CN(Cc2ccc(F)cc2)S(=O)(=O)c2ccc(F)c(C(=O)Nc3c(C)cccc3C)c2)cc1 14.1 µM [inhibitor, partial curve, poor fit]
CC1CCN(CC(=O)Nc2ccc(S(=O)(=O)N3CCCCC3)cc2)CC1 3.98 µM [inhibitor, partial curve, poor fit]
COC(=O)C(C(C)C)N(Cc1cc(OC)cc(OC)c1)S(=O)(=O)CCl (stereo not drawn) 28.2 µM [inhibitor, single point]
Cc1ccc(C)c(NC(=O)CN(C)C(=O)c2ccccc2OCc2ccccc2Cl)c1 11.2 µM [inhibitor, partial curve, poor fit]
Cc1ccc(C)c(N2CCN(S(=O)(=O)c3ccc4c(c3)C(C(C)C)C(=O)N4)CC2)c1 (stereo not drawn) 11.2 µM [inhibitor, single point]
COc1cnc(-c2ccccn2)nc1Sc1cccc(Cl)c1 3.55 µM [inhibitor, full curve, poor fit]
Cc1oc(-c2cccc(Cl)c2)nc1CN1CCCC(C(=O)NCCCN2CCOCC2)C1 (stereo not drawn) 28.2 µM [inhibitor, single point]
COc1ccc2c(c1)C=C(CN1CCN(Cc3ccccc3C)C(CCO)C1)CO2 (stereo not drawn) 10 µM [inhibitor, partial curve]
CCc1ccc(C(=O)NNc2ccc(F)cc2F)cc1 1 µM [inhibitor, full curve, poor fit]
CC(C(=O)NCc1ccccc1)N(Cc1ccccc1Cl)C(=O)c1snc(C(N)=O)c1N (stereo not drawn) 31.6 µM [inhibitor, single point]
O=C1Nc2ccccc2-n2nnnc2C1N1CCN(c2ccc(C(F)(F)F)cc2[N+](=O)[O-])CC1 (stereo not drawn) 28.2 µM [inhibitor, single point]
COc1cccc(/C(=N/O)C2CC2c2ccc(Cl)cc2)c1 (stereo not drawn) 28.2 µM [inhibitor, single point]
CCN(CC(=O)Nc1cc(Cl)ccc1C)C(=O)c1ccc2c(c1)NC(=O)C(C)S2 (stereo not drawn) 10 µM [inhibitor, partial curve, poor fit]
CN(C)CCC(O)(c1ccccc1)c1ccccc1Cl (stereo not drawn) 10 µM [inhibitor, single point]
Cc1ccnc(NC(=S)NC(=O)c2cncc(Br)c2)c1 10 µM [inhibitor, partial curve, poor fit]
O=C(CN1CCN(c2ccccc2F)CC1)NC(=O)NC1CCCCC1 10 µM [inhibitor, single point]
Cc1ccn2c(NCc3ccccc3)c(-c3cccc(SC4CCCCC4)c3)nc2c1 11.2 µM [inhibitor, partial curve, poor fit] and 11.2 µM [inhibitor, single point]
Cc1ccc(NC(=O)Cn2nc(C(F)(F)F)c3c2CCCC3)cc1C 6.31 µM [inhibitor, partial curve, poor fit]
CC1=C(C(=O)OC2CCCC2)C(c2c(Cl)cccc2Cl)CC(=O)N1 (stereo not drawn) 28.2 µM [inhibitor, single point]
CC[C@@]12C(=O)N(c3cccc(Cl)c3)C(=O)N1[C@H](c1ccc(Br)cc1)[C@@H]1C(=O)N(C(C)(C)C)C(=O)[C@@H]12 8.91 µM [inhibitor, partial curve, poor fit]
Cc1cccc(Cl)c1NC(=O)N1CCN(c2ccnc3cc(Cl)ccc23)CC1 15.8 µM [inhibitor, partial curve, poor fit]
CCc1ccc2oc(=O)cc(CN3CCN(c4ccc(F)cc4)CC3)c2c1 28.2 µM [inhibitor, single point]
Clc1ccc(-c2nnnn2-c2ccc(Cl)cc2)cc1 11.2 µM [inhibitor, single point]
CCN(CC)c1ccc(/C=N/NC(=O)c2cc(C)nc3ccccc23)cc1 7.08 µM [inhibitor, partial curve, poor fit]
CC1CCN(S(=O)(=O)c2ccc(NC(=O)c3cccs3)cc2)CC1 10 µM [inhibitor, partial curve, poor fit]
CS(=O)(=O)c1ccc(S(=O)CC(=O)Oc2ccc(Cl)cc2)c([N+](=O)[O-])c1 (stereo not drawn) 31.6 µM [inhibitor, single point]
Cc1ccc(CNC(=O)CN2C(=O)COc3ccc(S(=O)(=O)N4CCCCC4)cc32)o1 8.91 µM [inhibitor, partial curve, poor fit]
CO/N=C/c1c(-c2ccc(Cl)cc2)nc2cc(C)ccn12 28.2 µM [inhibitor, single point]
COc1ccccc1Nc1nc(N)nc(CN2CCC(Cc3ccccc3)CC2)n1 11.2 µM [inhibitor, single point]
Cc1cccc(C(=O)NCC(=O)NC(C)CCc2ccccc2)c1 (stereo not drawn) 7.94 µM [inhibitor, partial curve, poor fit]
COc1ccc(-c2nc3ccccc3n3c(-c4cccc(C)c4)c4c(=O)n(C)c(=O)n(C)c4c23)cc1OC 28.2 µM [inhibitor, single point]
COc1ccc(-n2c(-c3ccc(Cl)cc3)c[n+]3c2CCCCC3)cc1 28.2 µM [inhibitor, single point]
COc1ccc(C)cc1NC(=O)C1CCCN(S(=O)(=O)c2cccs2)C1 (stereo not drawn) 22.4 µM [inhibitor, single point]
COc1ccc(C(=O)O/N=C(\N)c2ccccn2)c(OC)c1 7.94 µM [inhibitor, partial curve, poor fit]
C=CC(=O)Nc1ccc(N(C)c2ccnc(Nc3ccc(N4CCN(C)CC4)cc3)n2)cc1 8.91 µM [inhibitor, partial curve, poor fit]
CN(CC(=O)Nc1cccc(F)c1)C(=O)CNC(=O)Cc1cccc2ccccc12 8.91 µM [inhibitor, partial curve, poor fit]
CCC(CC)C(=O)N(CCc1ccc(OC)cc1)Cc1nc2ccccc2c(=O)[nH]1 12.6 µM [inhibitor, single point]
Cc1ccc(C)c(OC(=O)c2cccc(S(=O)(=O)N3CCN(C)CC3)c2)c1 10 µM [inhibitor, partial curve, poor fit]

Potency, inactive:
CCOC(=O)c1[nH]cnc1C(=O)NC1CCN(C(=O)OC(C)(C)C)CC1
CCOc1cc2c(C#N)c(N(CC)CC)nc(N)c2c(N)n1
C/C(=N\NS(=O)(=O)c1ccc(Cl)c([N+](=O)[O-])c1)c1cc2ccccc2o1
COc1ccc(-c2cn(Cc3ccc(C)cc3)nn2)cc1
CCc1ccc(-n2c(=O)c3c4c(sc3n(Cc3cc(=O)n5c(C)cccc5n3)c2=O)CCC4)cc1
Cc1ccc(CNC(=O)c2nn(-c3ccc(Cl)cc3)nc2CO)cc1
CCOC(=O)c1[nH]c2c(c1Cc1ccccc1OC)C(=O)CC(c1ccc(OC)cc1)C2 (stereo not drawn)
CCOc1ccc(NC(=O)N2CCC(n3c(=O)[nH]c4ccccc43)CC2)cc1
CC(=O)OCCn1c2nc(=O)[nH]c(=O)c-2nc2cc(C)c(C)cc21
O=C(COC(=O)c1ccc([N+](=O)[O-])cc1)Nc1ccc(Cl)cn1
CCCCn1c(=NC(=O)c2ccc3c(c2)OCO3)c(C#N)cc2c(=O)n3cccc(C)c3nc21
CN(C(=O)CC1C(=O)NCCN1Cc1c(F)cccc1Cl)C1CCOCC1 (stereo not drawn)
CCCCNC(=O)C1CCC(Cn2c(=O)c3sccc3n(Cc3ccccc3)c2=O)CC1 (stereo not drawn)
COC(=O)c1ccccc1NC(=O)c1ccc(COc2cccc3ccccc23)o1
Cc1cc(C)c(NC(=O)c2nc3ccccc3nc2N2CCCCC2)c(C)c1
COC(=O)CN(C)C(=O)c1ccccc1OC1CCN(S(C)(=O)=O)CC1
Cc1ccc(C(=O)NC(=S)N2CCN(C(=O)OC(C)(C)C)CC2)cc1Br

Potency, active:
COc1cccc(-c2nc(CS(=O)(=O)CC(=O)N3CCN(c4cc(C)ccc4C)CC3)c(C)o2)c1 7.94 µM
COc1ccc(-c2nc3c(C(=O)NCCN(C)C)cccc3c3ccccc23)cc1 10 µM
